Here are results for 73 sequences from paper PMC10726135.

The list shows a part of the results. At the low end of the ranking the order means little. The protein was read in a cell extract, so binding may be indirect.

This test has as its target T1, HNF4alpha8 (COS-7 nuclear extract) (UniProt P41235-5).
T1 sequence: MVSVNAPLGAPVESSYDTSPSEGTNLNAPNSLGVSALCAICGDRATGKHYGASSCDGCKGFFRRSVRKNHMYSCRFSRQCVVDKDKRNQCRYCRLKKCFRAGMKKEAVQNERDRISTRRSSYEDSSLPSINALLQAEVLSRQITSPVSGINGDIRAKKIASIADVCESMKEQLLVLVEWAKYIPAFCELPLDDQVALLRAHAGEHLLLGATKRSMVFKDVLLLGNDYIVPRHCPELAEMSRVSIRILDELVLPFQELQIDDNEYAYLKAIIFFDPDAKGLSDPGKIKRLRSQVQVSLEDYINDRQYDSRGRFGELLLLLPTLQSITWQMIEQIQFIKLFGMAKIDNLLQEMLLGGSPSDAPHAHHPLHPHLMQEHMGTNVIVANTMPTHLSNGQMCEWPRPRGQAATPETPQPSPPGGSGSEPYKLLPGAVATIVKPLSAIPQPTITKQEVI
The test is described as follows: protein-binding microarray. Particulars: COS-7 nuclear extract on double-stranded Agilent 4x180k PBM; binding buffer, salt, pH and temperature not given; high values mean tight binding; double strand, one strand shown; sequences stand for … in …GCCTAGGGAGATTAGAGTATCGGTCGA
GACCAGCGTGTGGCGCCATTTCAGGTCCAC: the binding signal (log2 normalized intensity) came to 1.74.

Turning to ACTCGGAGGACTGAGCCCGCTCCACTCCGG, the binding signal (log2 normalized intensity) is -1.33.

For TTCCACAAACACAGATCAGATATGAGATTC, the binding signal (log2 normalized intensity) is -1.39. Next, CTTTCCTGGGCCTTAAAGCATGACAAAATA: -0.334; TCTGCTGGGCCTTCAGCTTGAAAACACAAC: -1.42; GGTGAAATAGCTGAACTATTTAAGGCCTTT: 0.507.

Regarding CCGCCCACCCTTTTTTTTCTTTCTTTTCCC, the binding signal (log2 normalized intensity) turned out to be 1.46.

For CACATTCCATTCTCACTGACTCACGGCAGC, the binding signal (log2 normalized intensity) is -1.24. Consider ACTTCCAAAGCCCCTTTCCACTCTACCGTC, for which the binding signal (log2 normalized intensity) was found to be 0.894.

Take GAAACATGACACCCATCATGAGTAGGTTTA: the binding signal (log2 normalized intensity) is -1.19.

Consider TTGCATCTCCTCCTCCCATTCCAGCTCTTT, for which the binding signal (log2 normalized intensity) is 0.802.

Turning to AGTCCGGGGGCCAGTTCACTCAGTCCACAT, the binding signal (log2 normalized intensity) was 3.21. Next, CCTGACCTTTGGATTCCCAGATGGAGTGCT: 3.88.

Regarding CAGTAGATAACCTCAAAGAGCATGGCGCCA, the binding signal (log2 normalized intensity) is -1.36. Next, ATCAAAGCAGTATCATCAACATGCACTAGC: -1.32; ACTTAGTCCAGGTTTAGCAAGAATACTGCT: -1.3.

Take ACTCATGCTTTCTTATCTGGGGGCCATTCC: the binding signal (log2 normalized intensity) amounted to 1.65.

On to GAGATAAGGGGGTCAGTTCAAAAGACTCAT, for which the binding signal (log2 normalized intensity) is -0.518. Next, TTGTCCTTCACTTGTAGGAGACCTTGAGGA: 1.67; ATTTTATGGGAAAACAGAATGGTCTGTATT: 1.03. Next, AACTCCTATGTGAATCTAATGCCACCATTG: -1.36; CTTAACATGGTTTGCAAGACCTCTGAGAAC: 0.556. In the case of GAGGGATCAGGTCTTTCCTGTCCCAAGGGG, the binding signal (log2 normalized intensity) was 0.312. Next, TTCCCGAGTGCCTTTAGAGGGCAAGGATCA: 3.29; GTCTTTGCTTTTTGAAAAGCTGTAGTGAAC: 1.21; CTCCAAGATAAAGGGTCAGATTGTAGCCTC: 1.37. With AGTATCCCATCCATTTCCCATCCCCAGAGC, the binding signal (log2 normalized intensity) turned out to be 3.72. Next, CTGCCAAAGCTCACAGATGTGGAATGAAAC: -0.00598; GGCAGCCAGTGAGTGCAGCAGTGTACTTGA: 0.556; ACCATCCACGGATGCATGATTGCTCTCTAC: -1.24.

For the sequence CAGCAGACAATGGGAGACATTCCTTCAGCG, the binding signal (log2 normalized intensity) is -1.15. Next, CCTTTTCTATCCAGATGATCTTTACCCTGG: 4.59; GAACTGCAAGGCTAGAGATTCTCCCTGGGG: -1.34; AGGAATCTGTTGAGAACTGGAGCAAAGGTC: 5.76. As for TGTCCCACATTAACTGTGCTTCTGGGGTAT, the binding signal (log2 normalized intensity) stood at 0.886. Next, AATAACAAAGGGCACCCTTGATGTGTATTT: 1.75; ATCAGGAAGGTCAGAAAGCAGAAGTTCTAG: -1.3; GTACCCCACAGGTATTCTTTCATCCCTCTC: 1.54.

Regarding AACCCTTGAGCTCTGCACAGCACAAGATAA, the binding signal (log2 normalized intensity) came out at 0.249. Next, CCCATCCCAGAGGTCAAACTATCTGAGGTG: 1.93. Consider AAGCCGAAAGAGGGTGAAAGTACAGTGATG, for which the binding signal (log2 normalized intensity) is 1.11. Next, GGGCTGAGGATGAGGACTTTGGTCTTATTA: 4.45; ACCCCAAAACCCCCAAAGGTGAGTAGGGCC: 3.21.

As to ATGGAGATGGAGATGGCCTGGAGGTACCTA, the binding signal (log2 normalized intensity) is -1.41. Next, TGATCACAAAGCCTGGGGTTTGGCTCCAAG: -1.25; TAGTACGCTCCCTGTGCCCACTTTCCTGGG: -0.99; ACCTGCAAACCTTTGACCTTTCCATAGTTC: 5.75. Next, CTTCGCTGGAATGTCACAGGGATTACGATC: 0.569; ACCTGACAGGCTGAGGATCTAATGCACCCA: -0.914. Next, TTCTCTGAGGTAGTTGAGTGCCTCCATTTC: 0.109.

Regarding ACAAGGAATTGGAATTGGGAGGACAGATAA, the binding signal (log2 normalized intensity) is -1.26.

For the sequence CAAACAAAGGCACTTCTCTCTCCAAGGCAC, the binding signal (log2 normalized intensity) was -1.32. With GGAGTGCTCCCGCCTGACCTGGCCCCTGAG, the binding signal (log2 normalized intensity) amounted to 0.962. Next, TTTGCTCCAGTTCCCAATAATTTCCTTATC: -1.15.

Consider TATTGCCCTCAGGGTTTAGGCCTGGGACCT, for which the binding signal (log2 normalized intensity) is 0.379. As to TAGTCCTATCACTGTCTAGCTGTGTAACCC, the binding signal (log2 normalized intensity) worked out at 1.87.

As to TACAGACTTTCAACAAGGTGGAGACCTCTG, the binding signal (log2 normalized intensity) was -0.0966. Next, TTCCAATAAACTTCATTTACCAAAAAACAG: -1.19; TCAGCACACTCTGGTACCATGGATGCACTC: 0.457. Next, ACAAGGAGTCTCCACTATGACCTGTGCTTT: 2.18; CATCCAACTCCTTGAGAAGTACAACTTCAG: -1.36; AAAGGAGCTGGGCCTGTGCTGGGGACAAAA: -1.3. As for CCGTCGGCACACACGCATGGCCGGCAGCAG, the binding signal (log2 normalized intensity) was -1.31. Next, CAGCATGTTATCAGTTAATTGCATTCTTTG: 0.554; CCAAACAGAACAAAGTCCAGTAAGGACAGT: 3.01; TGAGTAATGTGAAGACTTCGCTGGAATGTC: 0.589. Next, GTCACAGCAAAAGTAGCCTGGTCAGGAACA: -1.33; GCTCTGTAAGGAGGATCAAGTGTGCACACT: 3.46. Next, ACTAGCTCCATGTGAGTCACAAACAGTACT: -0.852; GGCTGCTTCACACAAACATCACCTACCTGA: -1.41; TACCAAGGAGTGGACTGTTCAAGACCAAAG: -1.3. CCTTTGTGTTTATGGCAAATTGATATCCTG: the binding signal (log2 normalized intensity) is 1.48. Next, TTTCACAGTCGATCTTTGACCGCTGCCTCC: 5.11.
